# Data from the supplement of paper PMC10037445.
# The full ranking holds about 2,900 compounds; the median of “NF-kB SEAP reporter activity, fold change vs agonist alone” is about 0.99, and the highest 2% start at about 2.6. The list shows a part of the results.
# Legend:
# RAW-Dual [1] = assay: NF-kB SEAP reporter activity, fold change vs agonist alone; higher = enhanced NF-kB activity
# Method in brief: (§1)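 RAW-Dual macrophages (50,000 cells/well in DMEM, 384-well plates) received 50 nL of library stock by pin tool, then a PRR agonist 1 h later, and were kept at 37 °C, 5% CO2. After 20 hours, supernatant was read for IRF by QuantiLuc luminescence and for NF-κB by QuantiBlue absorbance at 620 nm. Reporter activity is fold change over agonist-alone wells. Cytotoxic wells had IncuCyte confluency below 70% of agonist controls in both mask sets.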
# RAW-Dual [2] = assay: NF-kB SEAP reporter activity, fold change vs agonist alone; cytotoxicity flag (confluency mask): not cytotoxic; higher = enhanced NF-kB activity
# Method in brief: as §1
# RAW-Dual [3] = assay: NF-kB SEAP reporter activity, fold change vs agonist alone; cytotoxicity flag (confluency mask): cytotoxic (confluency <70% of control); higher = enhanced NF-kB activity
# Method in brief: as §1
# [4] = library stock concentration (final ~1000-fold dilution): 10 mM water, cytotoxicity flag (confluency mask): not cytotoxic, agonist: Imiquimod (TLR7) […]
# [5] = library stock concentration (final ~1000-fold dilution): 10 mM water, cytotoxicity flag (confluency mask): not cytotoxic, agonist: MPLA (TLR4) […]
# [6] = agonist: ODN 1826 (TLR9) 0.5 ug/mL
# [7] = agonist: Pam2CSK4 (TLR2/6) 0.1 ug/mL
# [8] = agonist: Pam3CSK4 (TLR2/1) 0.1 ug/mL
# [9] = library stock concentration (final ~1000-fold dilution): 10 mM, cytotoxicity flag (confluency mask): not cytotoxic, agonist: Imiquimod (TLR7) […]
# [10] = library stock concentration (final ~1000-fold dilution): 10 mM, cytotoxicity flag (confluency mask): not cytotoxic, agonist: MPLA (TLR4) […]
smiles,measurement,setting,value
CC(=O)NC(CC(=O)O)C(=O)NC(CCC(=O)O)C(=O)NC(C(=O)NC(C=O)CC(=O)O)C(C)C (stereo not given),NF-kB SEAP reporter activity,RAW-Dual [1]; [4],0.951
same,NF-kB SEAP reporter activity,RAW-Dual [1]; [5],1.04
Cl.Clc1ccccc1CN1CCc2sccc2C1 (library stock concentration (final ~1000-fold dilution): 10 mM water),NF-kB SEAP reporter activity,RAW-Dual [2]; agonist: LPS (TLR4) 0.1 ug/mL,1.21
same,NF-kB SEAP reporter activity,RAW-Dual [2]; [6],1.03
same,NF-kB SEAP reporter activity,RAW-Dual [2]; [7],1.11
same,NF-kB SEAP reporter activity,RAW-Dual [2]; [8],1.43
Cl.Clc1ccccc1CN1CCc2sccc2C1,NF-kB SEAP reporter activity,RAW-Dual [1]; [4],0.922
same,NF-kB SEAP reporter activity,RAW-Dual [1]; [5],1.2
COc1cc2c3cc1Oc1c(OC)c(OC)cc4c1C(Cc1ccc(O)c(c1)Oc1ccc(cc1)CC3N(C)CC2)N(C)CC4.Cl.Cl (stereo not given) (library stock concentration (final ~1000-fold dilution): 10 mM),NF-kB SEAP reporter activity,RAW-Dual [2]; agonist: LPS (TLR4) 0.1 ug/mL,1.44
same,NF-kB SEAP reporter activity,RAW-Dual [2]; [6],0.2
same,NF-kB SEAP reporter activity,RAW-Dual [2]; [7],1.08
same,NF-kB SEAP reporter activity,RAW-Dual [2]; [8],1.19
COc1cc2c3cc1Oc1c(OC)c(OC)cc4c1C(Cc1ccc(O)c(c1)Oc1ccc(cc1)CC3N(C)CC2)N(C)CC4.Cl.Cl (stereo not given),NF-kB SEAP reporter activity,RAW-Dual [1]; [9],0.379
same,NF-kB SEAP reporter activity,RAW-Dual [1]; [10],1.37
Nc1ccn(C2OC(CO)C(O)C2O)c(=O)n1 (stereo not given),NF-kB SEAP reporter activity,RAW-Dual [1]; [4],1.46
same,NF-kB SEAP reporter activity,RAW-Dual [1]; [5],1.33
Nc1ccn(C2OC(CO)C(O)C2O)c(=O)n1 (stereo not given) (library stock concentration (final ~1000-fold dilution): 10 mM water),NF-kB SEAP reporter activity,RAW-Dual [2]; agonist: LPS (TLR4) 0.1 ug/mL,1.92
same,NF-kB SEAP reporter activity,RAW-Dual [2]; [6],1.7
same,NF-kB SEAP reporter activity,RAW-Dual [2]; [7],1.85
same,NF-kB SEAP reporter activity,RAW-Dual [2]; [8],1.83
COc1ccc2cc1Oc1ccc(cc1)CC1c3cc(c(OC)cc3CCN1C)Oc1c(O)c(OC)cc3c1C(C2)N(C)CC3 (stereo not given),NF-kB SEAP reporter activity,"RAW-Dual [1]; library stock concentration (final ~1000-fold dilution): 10 mM, cytotoxicity flag (confluency mask): cytotoxic (confluency <70% of control), agonist: Imiquimod (TLR7) […]",0.618
same,NF-kB SEAP reporter activity,"RAW-Dual [1]; library stock concentration (final ~1000-fold dilution): 10 mM, cytotoxicity flag (confluency mask): cytotoxic (confluency <70% of control), agonist: MPLA (TLR4) […]",2.39
COc1ccc2cc1Oc1ccc(cc1)CC1c3cc(c(OC)cc3CCN1C)Oc1c(O)c(OC)cc3c1C(C2)N(C)CC3 (stereo not given) (library stock concentration (final ~1000-fold dilution): 10 mM),NF-kB SEAP reporter activity,RAW-Dual [3]; agonist: LPS (TLR4) 0.1 ug/mL,1.81
same,NF-kB SEAP reporter activity,RAW-Dual [3]; [6],0.241
same,NF-kB SEAP reporter activity,RAW-Dual [3]; [7],2.15
same,NF-kB SEAP reporter activity,RAW-Dual [3]; [8],1.31
Cn1cc(-c2[nH]c3cc(NC(=O)C(N)C4CCCCC4)cc4c3c2C=NNC4=O)cn1 (stereo not given) (library stock concentration (final ~1000-fold dilution): 10 mM),NF-kB SEAP reporter activity,RAW-Dual [2]; agonist: LPS (TLR4) 0.1 ug/mL,3.51
same,NF-kB SEAP reporter activity,RAW-Dual [2]; [6],2.74
CC1COC2(CCN(c3nc(=O)c4cc(C(F)(F)F)cc([N+](=O)[O-])c4s3)CC2)O1 (stereo not given) (library stock concentration (final ~1000-fold dilution): 10 mM),NF-kB SEAP reporter activity,RAW-Dual [2]; agonist: LPS (TLR4) 0.1 ug/mL,2.1
same,NF-kB SEAP reporter activity,RAW-Dual [2]; [6],0.99
same,NF-kB SEAP reporter activity,RAW-Dual [2]; [7],1.37
same,NF-kB SEAP reporter activity,RAW-Dual [2]; [8],1.18
CC1COC2(CCN(c3nc(=O)c4cc(C(F)(F)F)cc([N+](=O)[O-])c4s3)CC2)O1 (stereo not given),NF-kB SEAP reporter activity,RAW-Dual [1]; [9],0.984
same,NF-kB SEAP reporter activity,RAW-Dual [1]; [10],1.03
O=C1C(Cl)=C(N2CCOCC2)C(=O)N1c1ccc(Cl)c(Cl)c1 (library stock concentration (final ~1000-fold dilution): 10 mM),NF-kB SEAP reporter activity,RAW-Dual [2]; agonist: LPS (TLR4) 0.1 ug/mL,0.429
same,NF-kB SEAP reporter activity,RAW-Dual [2]; [6],0.739
same,NF-kB SEAP reporter activity,RAW-Dual [2]; [7],0.54
same,NF-kB SEAP reporter activity,RAW-Dual [2]; [8],0.425
O=C1C(Cl)=C(N2CCOCC2)C(=O)N1c1ccc(Cl)c(Cl)c1,NF-kB SEAP reporter activity,RAW-Dual [1]; [9],0.893
same,NF-kB SEAP reporter activity,RAW-Dual [1]; [10],0.869
Cc1ccc(-c2cc(C(F)(F)F)nn2-c2ccc(S(N)(=O)=O)cc2)cc1 (library stock concentration (final ~1000-fold dilution): 10 mM),NF-kB SEAP reporter activity,RAW-Dual [2]; agonist: LPS (TLR4) 0.1 ug/mL,0.486
same,NF-kB SEAP reporter activity,RAW-Dual [2]; [6],0.625
same,NF-kB SEAP reporter activity,RAW-Dual [2]; [7],0.358
same,NF-kB SEAP reporter activity,RAW-Dual [2]; [8],0.371
Cc1ccc(-c2cc(C(F)(F)F)nn2-c2ccc(S(N)(=O)=O)cc2)cc1,NF-kB SEAP reporter activity,RAW-Dual [1]; [9],1.37
same,NF-kB SEAP reporter activity,RAW-Dual [1]; [10],1.42
O=C(NCCN1CCOCC1)Nc1nc2ccc(Sc3nnc4ccc(-c5ccc(F)cc5)nn34)cc2s1 (library stock concentration (final ~1000-fold dilution): 10 mM),NF-kB SEAP reporter activity,RAW-Dual [2]; agonist: LPS (TLR4) 0.1 ug/mL,0.775
same,NF-kB SEAP reporter activity,RAW-Dual [2]; [6],0.868
same,NF-kB SEAP reporter activity,RAW-Dual [2]; [7],0.991
same,NF-kB SEAP reporter activity,RAW-Dual [2]; [8],0.922
O=C(NCCN1CCOCC1)Nc1nc2ccc(Sc3nnc4ccc(-c5ccc(F)cc5)nn34)cc2s1,NF-kB SEAP reporter activity,RAW-Dual [1]; [9],0.968
same,NF-kB SEAP reporter activity,RAW-Dual [1]; [10],1.03
CC1(C)SC2CC(=O)N2C1C(=O)OCOC(=O)C1N2C(=O)C(NC(=O)C(N)c3ccccc3)C2S(=O)(=O)C1(C)C.Cc1ccc(S(=O)(=O)O)cc1 (stereo not given) (library stock concentration (final ~1000-fold dilution): 10 mM),NF-kB SEAP reporter activity,RAW-Dual [2]; agonist: LPS (TLR4) 0.1 ug/mL,1.26
same,NF-kB SEAP reporter activity,RAW-Dual [2]; [6],0.797
same,NF-kB SEAP reporter activity,RAW-Dual [2]; [7],1.02
same,NF-kB SEAP reporter activity,RAW-Dual [2]; [8],0.873
CC1(C)SC2CC(=O)N2C1C(=O)OCOC(=O)C1N2C(=O)C(NC(=O)C(N)c3ccccc3)C2S(=O)(=O)C1(C)C.Cc1ccc(S(=O)(=O)O)cc1 (stereo not given),NF-kB SEAP reporter activity,RAW-Dual [1]; [10],1.02
Cc1ccc(Nc2nccc(N(C)c3ccc4c(C)n(C)nc4c3)n2)cc1S(N)(=O)=O.Cl (library stock concentration (final ~1000-fold dilution): 10 mM),NF-kB SEAP reporter activity,RAW-Dual [2]; agonist: LPS (TLR4) 0.1 ug/mL,1.1
same,NF-kB SEAP reporter activity,RAW-Dual [2]; [6],0.341
same,NF-kB SEAP reporter activity,RAW-Dual [2]; [7],0.296
same,NF-kB SEAP reporter activity,RAW-Dual [2]; [8],0.498
Cc1ccc(Nc2nccc(N(C)c3ccc4c(C)n(C)nc4c3)n2)cc1S(N)(=O)=O.Cl,NF-kB SEAP reporter activity,RAW-Dual [1]; [9],0.92
same,NF-kB SEAP reporter activity,RAW-Dual [1]; [10],1.2
CCn1c(N)c(C(=O)NC)c(=O)c2ccc(C#CC(C)(O)COC)nc21 (stereo not given),NF-kB SEAP reporter activity,RAW-Dual [1]; [9],0.959
same,NF-kB SEAP reporter activity,RAW-Dual [1]; [10],0.911
CCn1c(N)c(C(=O)NC)c(=O)c2ccc(C#CC(C)(O)COC)nc21 (stereo not given) (library stock concentration (final ~1000-fold dilution): 10 mM),NF-kB SEAP reporter activity,RAW-Dual [2]; agonist: LPS (TLR4) 0.1 ug/mL,0.812
same,NF-kB SEAP reporter activity,RAW-Dual [2]; [6],0.853
same,NF-kB SEAP reporter activity,RAW-Dual [2]; [7],0.977
same,NF-kB SEAP reporter activity,RAW-Dual [2]; [8],0.99
CCOC(=O)C1=C(C)NC(=S)NC1c1cccc(O)c1 (stereo not given),NF-kB SEAP reporter activity,RAW-Dual [1]; [9],1.07
same,NF-kB SEAP reporter activity,RAW-Dual [1]; [10],1.03
CCOC(=O)C1=C(C)NC(=S)NC1c1cccc(O)c1 (stereo not given) (library stock concentration (final ~1000-fold dilution): 10 mM),NF-kB SEAP reporter activity,RAW-Dual [2]; agonist: LPS (TLR4) 0.1 ug/mL,0.978
same,NF-kB SEAP reporter activity,RAW-Dual [2]; [6],1
same,NF-kB SEAP reporter activity,RAW-Dual [2]; [7],0.948
same,NF-kB SEAP reporter activity,RAW-Dual [2]; [8],1
